# Test results as given in PubChem BioAssay AID504845 (National Center for Advancing Translational Sciences (NCATS), 2011).
# Where “and” joins values, the source holds several entries; their conditions need not be identical. Equal entries are not always repeated. Out of some 390,000 compounds screened, about 150 (0.038%) were called active. Inconclusive results (about 3%) are left out. The call rests on the fitted dose curve; in most records, active means well fitted inhibition curve with a large enough effect; inconclusive means small, poorly fitted or top-dose-only effect; inactive means no such curve, though single readings can be large or run the other way. This is a selection; strong and weak results do not stand in their true shares. A structure can be active in one record and inactive in another.
# Biological target: Regulator of G-protein signaling 4 (Homo sapiens) (UniProt P49798)
# Experiment: Inhibitors of Regulator of G Protein Signaling (RGS) 4: qHTS; further: nearly all actives have a fitted effect of over 75% in size
# Details: Transcreener GDP fluorescence polarization, RGS4-accelerated GTP hydrolysis; series mostly up to 114 µM; activity change, negative = inhibition: at the top concentration
# Description: G-protein-coupled receptors (GPCRs) are well-established targets for drug discovery and development. Members of the "regulator of G-protein signaling" (RGS)-protein superfamily have recently emerged as critical modulators of specific GPCR signaling pathways. […] Combining specific RGS domain inhibitors with existing GPCR agonists should potentiate cellular responses and could also increase the specificity of action of existing therapeutics. Small molecule modulators of RGS domain activity should also have clinical utility in inhibiting or potentiating the actions of endogenous GPCR agonists. In particular, the diversity of RGS proteins with highly localized and dynamically regulated distributions in the human brain makes this family of proteins attractive targets for pharmacotherapy of central nervous system (CNS) disorders such as Parkinson's disease, schizophrenia, and anxiety.
# This assay was used to screen the NIH Molecular Libraries Small Molecule Repository (MLSMR) in order to identify a small molecule that inhibits RGS4.
# NIH Chemical Genomics Center [NCGC]
# NIH Molecular Libraries Probe Centers Network [MLPCN]
# Assay Submitter (PI): David Siderovski, University of North Carolina Chapel Hill (School of Medicine)
# Two microliters of 500nM (2x working concentration) is dispensed into black medium-binding solid-bottom Kalypsys plates. Then with the Kalypsys pintool 23nl of control and compounds are transferred; the control compound is […] CCG-4986 (working concentration). After a 10 minute incubation at room temperature 2ul of antibody is added with the Kalypsys dispenser; (-)RGS4/Transcreener GDP solution in columns 3 and 4 which consisted of 10nM (2x working concentration) Alexa633, 20uM GTP, and 20 ug/ml GDP antibody and (+)RGS4/Transcreener GDP solution in columns 1,2, and 5 to 48 which consists of 900nM RGS4 (2x working concentration), 10nM Alexa633, 20 ug/ml GDP antibody. The plate is centrifuged at 1000 RPM for 15 seconds to remove any possible bubbles and then incubated for 5 minutes at ambient room temperature. An initial fluorescent polarization read (620 nm/688 nm) is performed on the Envision before the plate is incubated for 90 minutes at 30 deg C at a relative humidity of 80%. The plate is once more centrifuged at 1000 RPM for 15 seconds and another Envision fluorescent polarization (620 nm/688 nm) read is carried out.
# On the % scale 0 is the no-effect control and ±100 the full control effect; potency means the concentration at half of the fitted maximal effect.
# UniProt P49798, sequence (P49798 whole entry, looked up): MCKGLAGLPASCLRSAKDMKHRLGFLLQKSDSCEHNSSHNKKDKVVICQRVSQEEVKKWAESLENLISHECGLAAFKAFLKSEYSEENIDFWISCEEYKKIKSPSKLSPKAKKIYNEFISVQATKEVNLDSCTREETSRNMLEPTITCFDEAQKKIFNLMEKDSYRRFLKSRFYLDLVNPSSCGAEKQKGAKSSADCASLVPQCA
SMILES,"activity change, negative = inhibition",Potency
CCN(CCn1cccn1)C(=O)c1cc(COc2cccc3cccnc23)on1,inactive: 54.7%,–
C[N+](C)(C)CCCCCC[N+](C)(C)C,–,inactive
O=C(c1cccc(F)c1)N1CCCC(C(=O)N2CCCC2)C1 (stereo not given),inactive: 56.2%,–
CN(c1ccccc1)S(=O)(=O)c1ccc(NC(=O)c2nc(S(C)(=O)=O)ncc2Cl)cc1,inactive: -103%,–
Cn1c(=O)cc(OCCCC(=O)NCc2ccccn2)c2ccccc21,inactive: 66.1%,–
C=Cc1c(C)c2cc3[nH]c(cc4nc(cc5nc(cc1[nH]2)C(C)=C5CCC(=O)O)C(CCC(=O)O)=C4C)c(C)c3C=C,–,active: 9.47 µM
CCCN1C[C@H](CSC)C[C@@H]2c3cccc4[nH]cc(c34)C[C@H]21,–,inactive
O=C(Nc1cccc(Cl)c1)c1cnc[nH]1,inactive: -12.8%,–
CSc1ccc2c(c1)C(N1CCN(C)CC1)Cc1ccccc1S2 (stereo not given),–,inactive
CN(C)CCCN1c2ccccc2Sc2ccccc21,inactive: -1.91%,–
O=C1C2C(C(=O)N1CCN1CCN(Cc3ccc([N+](=O)[O-])cc3)CC1)[C@H]1C=C[C@@H]2C1 (stereo not given in full),inactive: 19.6%,–
CC1=C(CC(=O)O)c2cc(F)ccc2/C1=C\c1ccc(S(C)=O)cc1 (stereo not given),inactive: -29.8%,–
COc1ccc(NC(=O)Cn2nnc(C(=O)Nc3ccc(F)c(Cl)c3)c2N)cc1OC,–,inactive
S=C(S)OC1CC2CC1C1CCCC21 (stereo not given),–,inactive
COc1cccc2c1C(=O)c1c(O)c3c(c(O)c1C2=O)C[C@@](O)(C(=O)CO)C[C@@H]3O[C@H]1C[C@H](N)[C@H](O)[C@H](C)O1,inactive: 5.48%,–
COc1ccccc1C(=O)N/C(=C\c1ccc(Br)cc1)C(=O)N1CCCC1,inactive: 0.629%,–
O=C(O)c1cccc2c1-c1ccc(Cl)cc1C2,inactive: 107%,–
CC(C)NC(=O)Nc1cccc2c1O[C@@H](CN(C)S(=O)(=O)c1ccc(F)cc1)[C@@H](C)CN([C@H](C)CO)C2=O,inactive: 7.01%,–
COc1ccccc1N1CCN(CCN(C(=O)C2CCCCC2)c2ccccn2)CC1,–,inactive
O=C(N/N=C/C=C/c1ccco1)c1cccs1,inactive: -53.8%,–
Nc1ncnc2c1ncn2[C@@H]1O[C@H](CO)[C@@H](O)[C@H]1O,–,inactive
O=C1OC[C@@H]2CCCN2C(=O)[C@@H](CC(=O)N(CCO)Cc2ccccc2)C/C=C\C[C@H]1Cc1ccc(F)cc1,inactive: 17.7%,–
OCC[C@@H]1C[C@H](O)[C@@H](O)[C@]2(OCCc3ccccc32)O1,inactive: 12.4%,–
COC(=O)C1=C(C)NC2=C(C(=O)CC(c3cccs3)C2)C1c1ccsc1 (stereo not given),inactive: 67.1%,–
O=S(=O)(/N=C(\Sc1ccc(Cl)cc1)c1ccccc1)c1ccccc1,inactive: -41.2%,–

SMILES,"activity change, negative = inhibition",Potency
CN(C)CCOC(c1ccccc1)c1ccccc1,–,inactive
O=C(Nc1ccnn1C1CCN(Cc2ccccc2OC(F)F)CC1)c1cccnc1,inactive: 70%,–
CC(C)NC[C@@H](O)c1ccc(O)c(O)c1,inactive: -34.3%,–
CC1CC2C3CCC4=CC(=O)C=CC4(C)C3(F)C(O)CC2(C)C1(O)C(=O)CO (stereo not given),inactive: 7.25%,–
COCC1CCN(C(=O)C2CCN(c3nc(-c4ccccc4)nc4c3CCC4)CC2)C1 (stereo not given),inactive: 56%,–
CC1CC2C3CCC4=CC(=O)C=C[C@]4(C)[C@@]3(F)[C@@H](O)C[C@]2(C)[C@@]1(O)C(=O)CO (stereo not given in full),inactive: 13.2% [at 56.9 µM],–
CC(C1=C(CCN(C)C)Cc2ccccc21)c1ccccn1 (stereo not given),inactive: -9.13%,–
O=c1[nH]c(=S)[nH]c(-c2ccccc2)c1Cc1c(O)ccc2ccccc12,–,active: 2.12 µM
CCc1c(C)[nH]c2c1C(=O)C(CN1CCOCC1)CC2 (stereo not given),inactive: 5.3%,–
COc1ccc(-c2cc(NCCc3ccncc3)n3ncnc3n2)cc1,inactive: 54.3%,–
CN1CCc2cc(Cl)c(O)cc2[C@@H](c2ccccc2)C1,–,inactive
Nc1ccc(N2C(=O)c3ccccc3C2=O)c(Cl)c1,–,inactive
O=C(NCc1ccco1)[C@@H]1CCCN1C(=O)c1cccs1,inactive: 55.5%,–
CC1=C(/C=C/C(C)=C/C=C/C(C)=C/C(=O)O)C(C)(C)CCC1,inactive: -13.7%,–
CCCC1=NN(c2ccc([N+](=O)[O-])cc2)C(=O)/C1=C/N(C)C,inactive: 26.6%,–
N[C@@H](Cc1c[nH]c2ccc(O)cc12)C(=O)O,–,active: 23.8 µM
CCN1CCN(Cc2ccc(NC(=O)c3ccc(C)c(NC(=O)C(=O)c4c[nH]c5ccccc45)c3)cc2C(F)(F)F)CC1,inactive: -12%,–
COc1ccc(-c2ccoc2)cc1C1C2C=CCC(C)C2C(=O)N1Cc1ccccc1 (stereo not given),inactive: -50.2%,–
CC1CCN(C(=O)CCS(=O)(=O)c2cc3c(cc2Cl)NC(=O)CO3)CC1,inactive: 16.4%,–
Oc1ccc2ccccc2c1SSc1c(O)ccc2ccccc12,–,active: 1.68 µM
C[C@@](N)(C(=O)O)c1ccc(C(=O)O)cc1,inactive: -31.7% [at 56.9 µM],–
CN(C)CC(O)Cn1c2ccc(Br)cc2c2cc(Br)ccc21 (stereo not given),–,active: 0.67 µM
CCCCCCCCCCCCCCCC(O)C(N)CO (stereo not given),inactive: -18.2%,–
Cc1ccccc1NC(=S)NCCc1ccccn1,inactive: 65.1%,–
N[C@@H]1CONC1=O,inactive: 14.2% [at 56.9 µM],–

SMILES,"activity change, negative = inhibition",Potency
Cc1ccc(S(=O)(=O)N[C@@H](Cc2ccccc2)C(=O)CCl)cc1,–,active: 7.52 µM
CCOC(=O)N1CCN(/[N+]([O-])=N/Oc2ccc([N+](=O)[O-])cc2[N+](=O)[O-])CC1,inactive: -36.7%,–
O=C1O/C(=C/C(=O)N2CCOCC2)c2ccccc21,inactive: -4.78%,–
Cc1c(C(=O)NN2CCCCC2)nn(-c2ccc(Cl)cc2Cl)c1-c1ccc(I)cc1,–,inactive and active: 29.9 µM
CC(=O)[C@@]1(O)CC[C@H]2[C@@H]3C[C@H](C)C4=CC(=O)C=C[C@]4(C)[C@@]3(F)[C@@H](O)C[C@@]21C,inactive: 18%,–
CCCn1c(=O)[nH]c(=O)c2[nH]cnc21,–,inactive
Cn1c(=O)[nH]c2ncn(C)c2c1=O,–,inactive
C1COC(NC(C2CC2)C2CC2)=N1,inactive: -1.66%,–
CC(=O)[C@H](CC(C)C)NC(=O)[C@@H](CC(C)C)NC(=O)[C@H](CC(C)C)NC(=O)OCc1ccccc1,–,active: 8.44 µM
CCOCCCNC(=O)C(c1ccc(C)cc1)N(Cc1ccc2c(c1)OCO2)C(=O)CNC(C)=O (stereo not given),inactive: 56%,–
OCC[C@H]1C[C@H](O)[C@@H](O)[C@@]2(CCc3ccccc3CO2)O1,inactive: 0.168%,–
CCCc1nnc(NC(=O)CCC(=O)NCc2ccccc2Cl)s1,inactive: 58.8%,–
CCOC(=O)/C(=C\c1ccc(OC(F)F)cc1)C1=Nn2c(nnc2-c2ccc(Cl)cc2)SC1,inactive: -25.3%,–
CC(C)(C)c1ccc(S(=O)(=O)/C=C\C#N)cc1,inactive: -163% [at 56.9 µM],–
COc1ccc(S(=O)(=O)/N=C2/NC(=O)/C(=C\c3ccco3)S2)cc1,inactive: 8.57%,–
Cc1ccc(NC(=O)Cn2nc(C)cc2C)cc1,inactive: 54.2%,–
C[C@](N)(Cc1ccc(O)c(O)c1)C(=O)O,–,inactive and active: 26.7 µM
OCC[C@@H]1C[C@@H](O)[C@H](O)[C@]2(OCCc3ccccc32)O1,inactive: 2.7%,–
CN1C(=O)CC(=O)N(C)c2cc(S(=O)(=O)N(C)Cc3ccccc3)ccc21,inactive: 2.43%,–
Cc1ccc(C(=O)N/C(=C\c2cn(C)c3ccccc23)C(=O)NCCCN2CCOCC2)cc1,inactive: 70.9%,–
CCCCCCC/C=C\CCCCCCCCC(=O)O,–,active: 23.8 µM
NCCCC(=O)O,inactive: -15.9%,–
NCCc1cnc[nH]1,–,inactive
CC12CCC(C(=O)N(NC(=O)c3cccnc3)C1=O)C2(C)C (stereo not given),inactive: 75.8%,–
CCOC(=O)/C(=C/c1c[nH]c2ccccc12)NC(C)=O,inactive: -1.28%,–

SMILES,"activity change, negative = inhibition",Potency
NS(=O)(=O)c1cc2c(cc1Cl)NC=NS2(=O)=O,–,inactive
O=C(O)Cc1c[nH]c2ccc(O)cc12,–,inactive and active: 21.2 µM
CC1=C(CC(=O)O)c2cc(F)ccc2/C1=C/c1ccc(S(C)=O)cc1 (stereo not given),inactive: -14.5%,–
CS/C(=N\S(=O)(=O)c1cccs1)NC(=O)CSc1nc2ccccc2s1,inactive: -2% [at 11.4 µM],–
Cc1ccc(CN2CCN(C3CCOCC3)CC2CCO)cc1 (stereo not given),inactive: 60.5%,–
CCCCC/C=C\C/C=C\CCCCCCCC(N)=O,–,active: 23.8 µM
CN(C)C/C=C(/c1ccc(Br)cc1)c1cccnc1,inactive: 31.5%,–
Cc1ccc2c(c1)c1c3n2CCNC3CCC1 (stereo not given),–,inactive
Oc1ccc(/C=C/c2cc(O)cc(O)c2)cc1,inactive: -19.5%,–
OCC[C@H]1C[C@@H](O)[C@H](O)[C@]2(OCCc3ccccc32)O1,inactive: -6.17%,–
CCCCC[C@H](O)/C=C/C1=C(CCCCCCC(=O)O)C(=O)CC1,inactive: -8.2%,–
CCCc1c(-c2ccc(O)cc2)nn(-c2ccc(O)cc2)c1-c1ccc(O)cc1,inactive: -7.67%,–
CC(=O)OCC(=O)[C@@]1(O)CCC2C3CCC4=CC(=O)CCC4(C)C3C(=O)CC21C (stereo not given in full),inactive: -4.92%,–
COc1ccc(/C=C(\NC(=O)c2ccc(OC)cc2)C(=O)NC(CCSC)C(=O)O)cc1 (stereo not given),inactive: 61.1%,–
CCOC(=O)C(CSCc1ccccc1)NC(=O)OC(C)(C)C (stereo not given),inactive: 85.9%,–
C/C(=N\Nc1nncc2ccccc12)c1ccc(OCC(=O)N(C)C)cc1,inactive: 54.1%,–
C[C@H]1O[C@@H](O[C@H]2[C@@H](O)C[C@H](O[C@H]3[C@@H](O)C[C@H](O[C@H]4CC[C@@]5(C)[C@H](CC[C@@H]6[C@@H]5C[C@@H](O)[C@]5(C)[C@@H](C7=CC(=O)OC7)CC[C@]65O)C4)O[C@@H]3C)O[C@@H]2C)C[C@H](O)[C@@H]1O,–,inactive and active: 1.68 µM
O=C(N/N=C/C(Cl)=C\c1ccccc1)c1ccco1,inactive: -27.6%,–
COc1ccccc1NC(=O)c1cccnc1,inactive: 61.1%,–
CC[N+](CC)(CC)CCOc1ccc(/C=C/c2ccccc2)cc1,inactive: -22.3%,–
O=C(COC(=O)c1ccc2c(c1)S(=O)(=O)c1ccccc1C2=O)NC1CC1,inactive: 54.7%,–
CCCCNC(=O)O[C@H]1C[C@@H]2CCN3C(=O)CCC[C@H]([C@H]1CC)[C@H]23,inactive: -22.5%,–
Cn1nnnc1Sc1ncnc2scc(-c3ccc(F)cc3)c12,inactive: -28%,–
COc1ccc(-c2cc(C(F)(F)F)nc(S(=O)(=O)CCCC(=O)Nc3cccc(O)c3)n2)cc1OC,inactive: -33.6%,–
O=C(C1CCCCC1)N1CC(=O)N2CCc3ccccc3C2C1 (stereo not given),inactive: -0.667% [at 56.9 µM],–
